Assay results reported in PubChem BioAssay AID624296 (National Center for Advancing Translational Sciences (NCATS), 2012).
Hit rate of the full screen: of about 350,000 compounds, about 9,900 (2.8%) were called active. This list was built around the results that the source calls inconclusive (neither active nor inactive); the mix of calls is not that of the screen. The call rests on the fitted dose curve; in most records, active means well fitted activation curve with a large enough effect; inconclusive means small, poorly fitted or top-dose-only effect; inactive means no such curve, though single readings can be large or run the other way. Potencies of inconclusive entries are left out as doubtful fits. More than one record can exist for a structure, and the calls need not agree.

test: A quantitative high throughput screen for small molecules that induce DNA re-replication in MCF 10a normal breast cells.; further: nearly all actives have a fitted effect of over 50% in size; on activity, positive = re-replication: % of control where 0% means no effect; conditions: MCF 10A DNA re-replication, Hoechst nuclear intensity, 48 h; activity, positive = re-replication: at 46.1 µM (top of the series)
Potency means the concentration at half of the fitted maximal effect; tags describe the fitted curve by direction and shape.

With O=C(COC(=O)/C=C/C(=O)OCC(=O)Nc1ccccc1F)Nc1ccccc1F as the molecule, how does the Potency read?
Its Potency is inconclusive [activator, single point].

With CCCSc1nnc(NC(=O)Nc2ccc(C)cc2)s1 as the molecule, how does the “activity, positive = re-replication” value read?
The value was inactive: 10.4%.

For Cc1ccc(Cl)cc1NC1=NC(=S)N(C(C)C)C12CCCCC2, which Potency is on record?
Its Potency is inconclusive [activator, single point].

With Cc1oc(-c2ccccc2Cl)nc1CS(=O)CC(=O)NC1CC1 (centres undefined) as the molecule, how does the “activity, positive = re-replication” value read?
Its value is inactive: 14.4%.

With CCOC(=O)c1ccc2c(c1)nc(C1CCN(S(=O)(=O)c3cccs3)CC1)n2CC as the molecule, how does the Potency read?
The Potency was inconclusive [activator, full curve, poor fit].

With Cc1ccc(OCC(=O)N(C)CC(=O)Nc2ccc(Cl)c(C(F)(F)F)c2)c([N+](=O)[O-])n1 as the molecule, how does the Potency read?
Its Potency is inconclusive [activator, partial curve, poor fit].

With CCOc1cc(C2C3=C(CCCC3=O)N(CC(=O)O)C3=C2C(=O)CCC3)ccc1OC as the molecule, how does the Potency read?
The Potency was inconclusive [activator, full curve, poor fit].

For CCN(CC)C(=O)Cn1cc(/C=C(\C#N)C(=O)N2CCN(c3ccccc3)CC2)c2ccccc21, which Potency is on record?
The Potency was inconclusive [activator, partial curve, poor fit].

For O=C(CNc1cccc(C(F)(F)F)c1)N/N=C/c1cccc(Br)c1, which Potency is on record?
Its Potency is active: 20.6 µM.

With CC(=O)Nc1ccc(C(=O)Cn2nnc3ccccc3c2=O)cc1 as the molecule, how does the Potency read?
The Potency was inconclusive [activator, full curve, poor fit].

With Cn1c(Cl)c(/C=N/OC(=O)c2cccc(Cl)c2)c2ccccc21 as the molecule, how does the “activity, positive = re-replication” value read?
Its value is inactive: 0.247%.

Which Potency does the source give for CC(C)Cn1c2c(c(=O)[nH]c1=O)C(C(F)(F)F)(C(F)(F)F)N=C(CCC1CCCCC1)N2 here?
Its Potency is active: 16.4 µM.

Which “activity, positive = re-replication” value does the source give for O=C(NCc1cccnc1)c1nn2cccnc2c1Cl here?
Its value is inactive: -0.109%.

For COc1cccc(CNc2ncnc3ccc(-c4c(C)noc4C)cc23)c1, which Potency is on record?
Its Potency is inconclusive [activator, single point].

For O=C(/C=C/c1ccc(F)cc1)NC(=S)Nc1ccccc1O, which “activity, positive = re-replication” value is on record?
The value was inactive: 9.41%.

For O=[N+]([O-])c1cccc(C(=S)N2CCN(c3ccc(F)cc3)CC2)c1, which Potency is on record?
The Potency was inconclusive [activator, full curve, poor fit].

For COc1ccc(CNC(=O)c2cc3c(=O)n4ccccc4nc3n(Cc3cccnc3)c2=N)cc1, which Potency is on record?
The Potency was inconclusive [activator, partial curve, poor fit].

For CCN1CCN(C(=O)c2ccc3c(=O)n(Cc4ccccc4OC)c(=S)[nH]c3c2)CC1, which Potency is on record?
The Potency was inconclusive [activator, partial curve, poor fit].

Which Potency does the source give for Cn1c(Cc2ccccc2)nnc1SCc1ccc(C(=O)O)cc1 here?
The Potency was inconclusive [activator, full curve, poor fit].

Which “activity, positive = re-replication” value does the source give for Cc1cc(-c2ccccc2)nc(Cl)c1C#N here?
Its value is inactive: 0.806%.

With O=C(CCn1nnc(-c2cccs2)n1)NC1CCCCC1 as the molecule, how does the Potency read?
The Potency was inconclusive [activator, single point].

With CCC1CN(C(=O)N2CCC(C(=O)NCCc3ccccc3OC)CC2)c2ccccc2O1 (centres undefined) as the molecule, how does the Potency read?
The Potency was inconclusive [activator, partial curve, poor fit].

For CCCC(c1nnnn1Cc1ccco1)N1CCN(C(=O)c2ccco2)CC1 (centres undefined), which Potency is on record?
Its Potency is inconclusive [activator, partial curve, poor fit].

Which Potency does the source give for CCC(CO)Oc1cc(NCc2cccc(Cl)c2)c2ncn(C(C)C)c2c1 (centres undefined) here?
The Potency was inconclusive [activator, partial curve, poor fit].

For CC(=O)NCCN1C(=O)C2C3c4ccccc4C(c4ccccc43)C2C1=O (centres undefined), which “activity, positive = re-replication” value is on record?
Its value is inactive: 1.52%.

Which “activity, positive = re-replication” value does the source give for CCOC(=O)CN(C(=O)CSc1nnnn1C)c1ccccc1 here?
The value was inactive: -1.69%.

Which Potency does the source give for COc1ccc(-c2nc3nc(SC)nn3cc2C)cc1F here?
Its Potency is inconclusive [activator, partial curve, poor fit].

Which Potency does the source give for CCOc1ccc(C2=Nc3ccccc3C(c3ccc(N4CCOCC4)cc3)=NN2)cc1 here?
The Potency was active: 16.4 µM.

Which Potency does the source give for COc1ccc(-n2nccc2-c2nn(-c3cccc(OC)c3)c(=O)n(C)c2=O)cc1 here?
Its Potency is inconclusive [activator, full curve, poor fit].

With NS(=O)(=O)c1ccc(NC(=O)c2ccc3nccnc3c2)cc1 as the molecule, how does the Potency read?
The Potency was inconclusive [activator, partial curve, poor fit].

For Cc1ccc(N2CC(C(=O)Nc3cccnc3)CC2=O)cc1Cl (centres undefined), which “activity, positive = re-replication” value is on record?
The value was inactive: -5.43%.

Which activity, positive = re-replication does the source give for CCC(=O)Nc1nc2cc(OC)ccc2s1 here?
Its activity, positive = re-replication is inactive: -188% [at 0.0737 µM].

With COc1ccc(NC(=O)CN(C)S(=O)(=O)c2cnc[nH]2)cc1Cl as the molecule, how does the “activity, positive = re-replication” value read?
Its value is inactive: 0.167%.

With Cc1ccc(-c2[nH]c(-c3ccccc3)nc2SCC(=O)NCC2CCCO2)cc1 (centres undefined) as the molecule, how does the Potency read?
Its Potency is inconclusive [activator, full curve, poor fit].

For O=c1c2sc3nc(N4CCOCC4)c4c(c3c2nnn1Cc1ccccc1)CCCC4, which “activity, positive = re-replication” value is on record?
Its value is inactive: 17%.

With CCn1ccnc1CNC(=O)c1ccc2oc(C(C)C)nc2c1 as the molecule, how does the “activity, positive = re-replication” value read?
The value was inactive: -0.343%.

For Cc1onc(-c2ccccc2)c1C(=O)OCC(=O)Nc1ccc(C#N)cc1, which Potency is on record?
The Potency was inconclusive [activator, single point].

With COC(=O)CCCC(=O)N1CCCC(CCC(=O)NCc2ccc(F)c(F)c2)C1 (centres undefined) as the molecule, how does the Potency read?
Its Potency is inconclusive [activator, full curve, poor fit].

For Cn1sc(NC(=O)c2ccc(Cl)cc2)nc1=O, which “activity, positive = re-replication” value is on record?
Its value is inactive: -1.88%.

Which “activity, positive = re-replication” value does the source give for CC(C)(C)c1ccc(-n2ncc3c2CCCC3NC(=O)c2ccncc2)cc1 (centres undefined) here?
Its value is inactive: 17%.

For Cc1nc(N)[nH]c(=O)c1Oc1cccc(C(F)(F)F)c1, which Potency is on record?
Its Potency is inconclusive [activator, single point].

With CC1(C)CC2CC(C)(CN2S(=O)(=O)c2ccc(C(=O)Nc3cccc(S(=O)(=O)N4CCOCC4)c3)cc2)C1 (centres undefined) as the molecule, how does the Potency read?
Its Potency is inconclusive [activator, partial curve].

For COc1cc(C(=O)NNC(=O)/C=C/c2ccccc2)cc(OC)c1OC, which Potency is on record?
The Potency was inconclusive [activator, single point].

With c1ccc(-c2nnc(CN3CCN(c4ccccc4)CC3)o2)cc1 as the molecule, how does the “activity, positive = re-replication” value read?
The value was inactive: 0.493%.

For COc1ccc(-c2nc(C(=O)NCCCN3CCOCC3)cc3c2[nH]c2ccccc23)cc1OC, which Potency is on record?
The Potency was inconclusive [activator, single point].

With CCNC(=O)NC(=O)COC(=O)c1ccccc1SCC(=O)NC(=O)NCC as the molecule, how does the Potency read?
Its Potency is inconclusive [activator, partial curve, poor fit].

With COc1ccc(OC)c(NC2=C(Cl)C(=O)N(Cc3ccccc3)C2=O)c1 as the molecule, how does the Potency read?
Its Potency is inconclusive [activator, single point].

For CCOC(=O)C1(C)NC(c2ccccc2F)C2C(=O)N(c3cccc(C(C)=O)c3)C(=O)C21 (centres undefined), which Potency is on record?
The Potency was inconclusive [activator, single point].

Which Potency does the source give for Cc1ccc(CS(=O)(=O)c2ncc(Cl)c(C(=O)Nc3nnc(C)s3)n2)cc1 here?
The Potency was inconclusive [activator, full curve, poor fit].

Which Potency does the source give for COc1ccc(NC(=O)ON=C2c3ccccc3-c3ccccc32)cc1 here?
Its Potency is inconclusive [activator, single point].

Which Potency does the source give for O=C(CSc1nn(-c2ccc(Cl)cc2)c(=S)s1)N1CCN(C(=O)c2ccco2)CC1 here?
The Potency was inconclusive [activator, single point].

With O=C(CSC1=NS(=O)(=O)c2cc(Cl)ccc2N1)c1ccc(Cl)cc1 as the molecule, how does the “activity, positive = re-replication” value read?
The value was inactive: 32.7%.

With CC(=O)c1ccc(C(=O)N2CCc3c([nH]c4ccccc34)C2c2cccc(C)n2)s1 (centres undefined) as the molecule, how does the “activity, positive = re-replication” value read?
The value was inactive: -23.4%.

With C[C@]12CCC(=O)C[C@@H]1CC[C@@H]1[C@@H]2CC[C@]2(C)C=CC[C@@H]12 as the molecule, how does the Potency read?
The Potency was active: 29.9 µM.

Which Potency does the source give for CCOC(=O)/C(C#N)=C\c1cc(OC)c(OC)cc1[N+](=O)[O-] here?
The Potency was inconclusive [activator, single point].

For Cc1nc(Nc2ccc(S(=O)(=O)N3CCCCC3C)cc2)c2nnn(Cc3ccccc3)c2n1 (centres undefined), which “activity, positive = re-replication” value is on record?
The value was inactive: -32.5%.

Which Potency does the source give for CCN(CC)S(=O)(=O)c1ccc(N2CCc3cc(OC)c(OC)cc3C2)nc1 here?
Its Potency is inconclusive [activator, single point].

For Cc1ccc(NC(=O)CCNS(=O)(=O)c2cc(Br)cnc2N)cc1Cl, which Potency is on record?
The Potency was active: 18.4 µM.

For Cc1cc(O)ccc1N/C=C(\C#N)c1nc2ccccc2o1, which Potency is on record?
Its Potency is active: 18.4 µM.

For O=C(CN1CCC(n2nnc3cc(F)ccc32)CC1)N1CCCc2ccccc21, which Potency is on record?
The Potency was inconclusive [activator, partial curve, poor fit].

Which “activity, positive = re-replication” value does the source give for Cc1c(-c2nc(N)nc(Nc3ccccc3F)n2)oc2ccccc12 here?
The value was inactive: 17.6%.

Which Potency does the source give for COc1ccc(Cc2nnc(N/N=C(\C)c3ccccc3)[nH]c2=O)cc1OC here?
The Potency was inconclusive [activator, partial curve, poor fit].

Which “activity, positive = re-replication” value does the source give for O=C(O)CCCC1(C(=O)O)CCCC1 here?
The value was inactive: -23.8%.

Which Potency does the source give for COc1cc(OCc2ccccc2)c(C(=O)/C=C/c2ccc3c(c2)OCO3)c(OC)c1OC here?
Its Potency is active: 14.6 µM.

For O=[N+]([O-])c1cc([N+](=O)[O-])c2cccnc2c1Oc1ccccc1O, which Potency is on record?
Its Potency is inconclusive [activator, partial curve, poor fit].

For O=C1C(=O)c2ncccc2-c2cccnc21, which Potency is on record?
Its Potency is inconclusive [activator, single point].

With O=C(O)c1ccc(N/N=C/c2ccc(-c3ccccc3)cc2)cc1 as the molecule, how does the Potency read?
Its Potency is active: 1.3 µM.

Which Potency does the source give for O=C(Nc1ccc(Cc2ccncc2)cc1)C1CCC(N2C(=O)C3C4C=CC(C5CC45)C3C2=O)CC1 (centres undefined) here?
Its Potency is inconclusive [activator, single point].

For COc1ccc(CCNC(=O)c2ccccc2NC(=O)CN2CCN(c3ccccc3O)CC2)cc1, which Potency is on record?
Its Potency is inconclusive [activator, single point].
